Laboratory results reported in paper PMC4336329 (PLoS ONE, 2015).
Out of some 310,000 compounds screened, about 2,200 (0.71%) showed an effect of 50% or more. Effects have a minus sign here. Some of the results follow.

The compounds below were run against human ether-à-go-go-related gene (hERG) potassium channel (human, UniProt Q12809) (assay: primary screen, population patch clamp on CHO cells stably expressing hERG).
Sequence of human ether-à-go-go-related gene (hERG) potassium channel (Q12809 whole entry, looked up): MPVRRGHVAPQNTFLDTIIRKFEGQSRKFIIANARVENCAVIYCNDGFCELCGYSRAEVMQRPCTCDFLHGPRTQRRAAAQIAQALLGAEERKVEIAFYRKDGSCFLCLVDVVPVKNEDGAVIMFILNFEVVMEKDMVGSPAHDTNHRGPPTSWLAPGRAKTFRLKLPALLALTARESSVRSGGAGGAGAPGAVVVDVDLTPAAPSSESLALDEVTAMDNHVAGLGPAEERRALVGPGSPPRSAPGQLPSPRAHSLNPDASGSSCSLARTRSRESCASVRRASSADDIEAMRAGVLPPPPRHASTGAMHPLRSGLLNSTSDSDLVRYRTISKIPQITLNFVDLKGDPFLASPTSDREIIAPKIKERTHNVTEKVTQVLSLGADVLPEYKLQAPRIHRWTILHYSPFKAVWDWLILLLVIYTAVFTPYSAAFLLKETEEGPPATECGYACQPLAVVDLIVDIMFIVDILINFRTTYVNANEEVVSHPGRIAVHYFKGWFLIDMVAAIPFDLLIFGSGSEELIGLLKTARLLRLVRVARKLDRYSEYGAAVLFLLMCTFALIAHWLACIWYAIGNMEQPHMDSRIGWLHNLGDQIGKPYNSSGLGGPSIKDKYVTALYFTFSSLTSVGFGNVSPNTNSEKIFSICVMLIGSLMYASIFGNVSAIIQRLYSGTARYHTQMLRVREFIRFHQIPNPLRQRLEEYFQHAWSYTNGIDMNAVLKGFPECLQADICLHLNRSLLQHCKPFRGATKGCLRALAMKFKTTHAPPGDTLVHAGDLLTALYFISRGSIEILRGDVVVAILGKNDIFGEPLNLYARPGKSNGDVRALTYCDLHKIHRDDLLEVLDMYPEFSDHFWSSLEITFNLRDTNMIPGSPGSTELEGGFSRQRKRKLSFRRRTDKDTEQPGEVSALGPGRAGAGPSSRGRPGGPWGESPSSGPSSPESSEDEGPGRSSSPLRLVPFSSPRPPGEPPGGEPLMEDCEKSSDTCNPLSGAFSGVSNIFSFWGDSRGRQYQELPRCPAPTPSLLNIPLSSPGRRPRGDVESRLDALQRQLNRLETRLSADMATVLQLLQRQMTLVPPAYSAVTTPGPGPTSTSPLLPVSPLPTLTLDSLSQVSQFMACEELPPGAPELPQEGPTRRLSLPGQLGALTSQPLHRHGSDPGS

Compared with `Cc1cccc(NC(=S)NNC(=O)CC(C)O)c1C` (stereo not shown), `CCCC(=O)Nc1ccc(Cl)c(NC(=S)NC(=O)c2ccco2)c1` is higher in “hERG current change (%, negative = inhibition) at 1uM” value: 10.2% for the first, 14.5% for the second.

Going from `CCOC(=O)N1CCN(Cc2nc(-c3ccc(OC)cc3)no2)CC1` to `COc1ccc(N2CCN(C(=O)CS(=O)Cc3nc(-c4ccc(OC)c(OC)c4)oc3C)CC2)cc1` (stereo not shown), the “hERG current change (%, negative = inhibition) at 1uM” value rises from -3.72% to 20.4%.

First: COC(=O)C1CCN(C(=O)COC(=O)c2ccc3[nH]c4c(c3c2)CCCC4)CC1
Second: COCCCNC(=S)N1CCC(C(=O)c2ccc3c(c2)OCCO3)CC1
The “hERG current change (%, negative = inhibition) at 1uM” value of the first is higher: 8% for the first, -0.197% for the second.

First: Nc1ccc(Nc2ccc([N+](=O)[O-])cc2[N+](=O)[O-])cc1
Second: COc1ccc(Nc2ccc(S(=O)(=O)N3CCCCC3)cc2[N+](=O)[O-])cc1OC
The “hERG current change (%, negative = inhibition) at 1uM” value of the first is lower: -5.55% for the first, 5.87% for the second.

Going from `COc1cc(-c2nnc3n2N=C(c2ccccc2)CS3)cc(OC)c1OC` to `CCc1cc(Cn2nc(C(=O)O)cc2-c2ccccc2)on1`, the “hERG current change (%, negative = inhibition) at 1uM” value rises from 0.878% to 13.5%.

Compared with `COc1cccc(-n2nc(C(N)=O)c(O)cc2=O)c1`, `COc1cccc(Oc2cncnc2-c2ccc(OC)cc2O)c1` is higher in “hERG current change (%, negative = inhibition) at 1uM” value: 2.65% for the first, 5.14% for the second.

Going from `Cc1csc(=O)n1CCC(=O)OCC(=O)Nc1cc([N+](=O)[O-])ccc1Cl` to `Cc1ccc(NC(=O)CSCC(=O)Nc2sccc2C#N)cc1`, the “hERG current change (%, negative = inhibition) at 1uM” value rises from 2.34% to 7.83%.

First: O=C(CCN1C(=O)C2C3CCC(C3)C2C1=O)Nc1ccccc1C(F)(F)F (stereo not shown)
Second: O=C(CSc1nnc(-c2ccccn2)o1)Nc1ccccc1C(F)(F)F
The “hERG current change (%, negative = inhibition) at 1uM” value of the first is lower: 6.67% for the first, 15.8% for the second.

First: C#CCOCCOCCOCCNc1nc(N2CCN(C(=O)[C@H]([C@@H](C)O)n3cc(CCCC[NH3+])nn3)CC2)nc(N2CCN(C(=O)[C@H]([C@@H](C)CC)n3cc(CCC[NH+]=C(N)N)nn3)CC2)n1.[Cl-]
Second: CN(C)S(=O)(=O)c1ccc2c(c1)nc(CCC(=O)NCC1CCCCC1)n2C
The “hERG current change (%, negative = inhibition) at 1uM” value of the first is higher: 13.6% for the first, -1.12% for the second.

First: CN(C)C(CNC(=O)c1ccc2c(c1)S(=O)(=O)c1ccccc1C2=O)c1ccco1 (stereo not shown)
Second: Cc1ccccc1NC(=O)c1ccc(C)c(S(=O)(=O)Nc2ccccn2)c1
The “hERG current change (%, negative = inhibition) at 1uM” value of the first is lower: 4.18% for the first, 12.8% for the second.

Compared with `COc1cccc(C2C3=C(CCCC3=O)Nc3[nH]n(-c4ccccc4)c(=O)c32)c1` (stereo not shown), `Cc1c(C(c2cccc([N+](=O)[O-])c2O)c2c(C)n(C)n(-c3ccccc3)c2=O)c(=O)n(-c2ccccc2)n1C` is lower in “hERG current change (%, negative = inhibition) at 1uM” value: 13.1% for the first, 2.29% for the second.

Compared with `Cc1nn(CC(=O)NCCCN2CCCCC2)c(=O)c2cc(-c3ccccc3)nn12`, `O=C(CNC(=O)C1CCCCC1)OCn1nnc2ccccc2c1=O` is higher in “hERG current change (%, negative = inhibition) at 1uM” value: -6.31% for the first, 6.85% for the second.

Compared with `CC(C)CN(CCC(=O)O)CC(C)C`, `O=C(O)CCCCNCc1ccccc1` is higher in “hERG current change (%, negative = inhibition) at 1uM” value: 6.16% for the first, 15.5% for the second.

Going from `CN1CC(C(=O)c2ccc(Cl)cc2)C(c2ccc(N(C)C)cc2)C1` (stereo not shown) to `Cc1ccc(C(O)P(=O)(OC(C)C)c2ccc(N(C)C)cc2)cc1` (stereo not shown), the “hERG current change (%, negative = inhibition) at 1uM” value rises from -23.4% to 12.3%.

Going from `Cc1ccc(OCc2ccc(C#N)cc2)c(C(=O)c2cc(C#N)c(=O)n(C3CC3)c2)c1` to `Cc1ccc(S(=O)(=O)Nc2cc(=O)[nH]c(SCC(=O)Nc3cccc(C)c3)n2)cc1`, the “hERG current change (%, negative = inhibition) at 1uM” value rises from 2.14% to 7.46%.

Compared with `C=CCN1C(=O)c2ccc(C(=O)N(C)CC(=O)Nc3ccccc3Br)cc2C1=O`, `CCCCCn1c(=O)[nH]c2cc(C(=O)Nc3ccc(OC)cc3)ccc2c1=O` is higher in “hERG current change (%, negative = inhibition) at 1uM” value: 8.42% for the first, 10.8% for the second.

First: CC(=O)Oc1ccc(-c2csc(Nc3cccnc3)n2)cc1
Second: Cc1ccc(NC(=O)c2cc3ccccc3cc2O)cc1
The “hERG current change (%, negative = inhibition) at 1uM” value of the first is lower: -6.85% for the first, 12% for the second.

Going from `CCOc1ccc(CN(CC)C(=O)Cc2c[nH]c3ccccc23)cc1OC` to `CCn1c(=O)cc(SCC(=O)N(C)Cc2ccccc2)c2ccccc21`, the “hERG current change (%, negative = inhibition) at 1uM” value falls from 8.36% to 0.218%.

First: CCC1(CC)NC(=S)N(Nc2ccccc2)C1=O
Second: Cc1sc2nc(SCC(=O)NCc3ccco3)n(CCc3ccccc3)c(=O)c2c1C
The “hERG current change (%, negative = inhibition) at 1uM” value of the first is lower: 7.94% for the first, 14.4% for the second.

First: CCN(C(=O)CSc1nnnn1-c1ccccc1OC)C1CCS(=O)(=O)C1 (stereo not shown)
Second: Cc1ccc(-c2nnc3sc(C4COc5ccccc5O4)nn23)cc1 (stereo not shown)
The “hERG current change (%, negative = inhibition) at 1uM” value of the first is higher: 22% for the first, 0.653% for the second.

Compared with `O=C(CCn1c(=S)oc2ccccc21)NC1CCCCCC1`, `O=C(NC1CCCC1)C(c1ccccc1)N(C(=O)c1csnn1)c1ccccc1F` (stereo not shown) is lower in “hERG current change (%, negative = inhibition) at 1uM” value: 12.1% for the first, 8.71% for the second.

Going from `Cc1nc2cc(OCc3cc(C(=O)NC(C)c4cnn(C)c4)no3)ccc2s1` (stereo not shown) to `Cc1noc(C)c1CSCC(=O)Nc1nc2ccc(F)cc2s1`, the “hERG current change (%, negative = inhibition) at 1uM” value falls from 9.19% to 6.79%.

Going from `CCOc1cc(/C=C2\C(=N)N3N=C(C)SC3=NC2=O)ccc1OCCOc1cccc(OC)c1` to `CCN1/C(=C/C(C)=C/c2sc3ccccc3[n+]2CC)Sc2ccccc21.[I-]`, the “hERG current change (%, negative = inhibition) at 1uM” value rises from 6.85% to 10.6%.

First: [N-]=[N+]=NC1CC(CO)OC1n1ccc(=O)[nH]c1=O (stereo not shown)
Second: COc1ccc(CN2C(=O)NC3(CCCCC3)C2=O)cc1F
The “hERG current change (%, negative = inhibition) at 1uM” value of the first is higher: 9.48% for the first, 4.07% for the second.

Going from `CN(CC1CCOCC1)C(=O)CC1C(=O)NCCN1Cc1ccc(Cl)c(F)c1` (stereo not shown) to `COc1ccc(C(=O)c2nc3c(n2O)CCCCC3)cc1`, the “hERG current change (%, negative = inhibition) at 1uM” value falls from 11.1% to -16.7%.

Compared with `Cc1ccc(C)c(NC(=O)CSc2n[nH]c(-c3ccncc3)n2)c1`, `Clc1cccc(Cl)c1Cn1nnc(-c2cccs2)n1` is lower in “hERG current change (%, negative = inhibition) at 1uM” value: 11% for the first, 4.62% for the second.

Compared with `CCCc1noc2c1/C(=N\O)CCC2`, `CC(C)(C)Nc1ncnc2c1cnn2-c1ccccc1` is higher in “hERG current change (%, negative = inhibition) at 1uM” value: 1.64% for the first, 2% for the second.

In the case of `Nc1nc2n(n1)C(c1ccco1)CC(c1ccc(F)cc1)N2` (stereo not shown), the “hERG current change (%, negative = inhibition) at 1uM” value is reported as 5.87%.
